According to patent US20250000946A1 (WUXI BIOLOGICS IRELAND, published 2025):
Values belong to the binder of their own block, whether it stands above or below them.

How the values were obtained:
[1] = target: T1, Human IL-2Rβ/γ (intermediate affinity IL-2 receptor) (human, UniProt P14784 27-551; P31785 23-369); experiment: FACS, HH cells
T1 construct: whole, on cells; also called IL-2Rβ/γc; IL-2Rβ (CD122) and γ (CD132)
T1 sequence (looked up) 1: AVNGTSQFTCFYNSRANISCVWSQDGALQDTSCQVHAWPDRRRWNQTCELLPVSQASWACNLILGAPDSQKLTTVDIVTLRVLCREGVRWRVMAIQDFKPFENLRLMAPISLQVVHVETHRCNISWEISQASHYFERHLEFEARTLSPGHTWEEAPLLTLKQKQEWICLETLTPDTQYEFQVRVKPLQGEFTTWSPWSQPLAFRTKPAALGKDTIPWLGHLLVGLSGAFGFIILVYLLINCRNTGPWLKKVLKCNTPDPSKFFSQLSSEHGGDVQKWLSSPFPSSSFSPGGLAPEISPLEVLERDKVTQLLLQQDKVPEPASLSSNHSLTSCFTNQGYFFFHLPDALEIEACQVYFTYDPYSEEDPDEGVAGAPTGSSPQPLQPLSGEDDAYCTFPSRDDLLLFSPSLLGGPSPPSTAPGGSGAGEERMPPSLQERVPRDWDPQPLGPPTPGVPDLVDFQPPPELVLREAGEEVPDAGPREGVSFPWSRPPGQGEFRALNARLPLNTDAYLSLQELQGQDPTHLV
T1 sequence (looked up) 2: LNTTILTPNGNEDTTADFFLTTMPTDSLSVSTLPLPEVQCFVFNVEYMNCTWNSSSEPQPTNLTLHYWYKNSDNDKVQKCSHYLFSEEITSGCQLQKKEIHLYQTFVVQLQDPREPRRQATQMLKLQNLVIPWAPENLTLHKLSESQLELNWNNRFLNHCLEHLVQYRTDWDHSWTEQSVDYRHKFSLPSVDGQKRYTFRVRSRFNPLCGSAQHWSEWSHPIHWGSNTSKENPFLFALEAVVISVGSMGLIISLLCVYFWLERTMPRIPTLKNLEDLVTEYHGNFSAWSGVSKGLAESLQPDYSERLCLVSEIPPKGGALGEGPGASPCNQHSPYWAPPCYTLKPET
Description: (§1) Human cutaneous T cell lymphoma HH cells, malignant non-Hodgkin's lymphoma NK92 cells and cutaneous T cell lymphoma MJ20 cells were used for binding assay. They both constitutively express IL-2Rβ (CD122) and […] (CD132), and NK92 and MJ20 also expresses IL-2Rα (CD25). HH, NK92 and MJ20 cells were cultured following ATCC guidance, then transferred to a 96-plate for binding analysis. Cells were incubated with IL-2/Fc fusion proteins at the indicated concentrations for 30 min at 4° C. to avoid internalization. Binding was detected by 2nd antibody of PE-anti-human Fc at 4° C. for another 30 min. The median fluorescence intensity (MFI) on HH and NK92 cells was measured using FACS.

[2] = target: T2, Human IL-2Rα/β/γ complex (high affinity IL-2 receptor) (human, UniProt P01589 22-272; P14784 27-551; P31785 23-369); experiment: FACS, NK92 cells
T2 construct: whole, on cells
T2 sequence (looked up) 1: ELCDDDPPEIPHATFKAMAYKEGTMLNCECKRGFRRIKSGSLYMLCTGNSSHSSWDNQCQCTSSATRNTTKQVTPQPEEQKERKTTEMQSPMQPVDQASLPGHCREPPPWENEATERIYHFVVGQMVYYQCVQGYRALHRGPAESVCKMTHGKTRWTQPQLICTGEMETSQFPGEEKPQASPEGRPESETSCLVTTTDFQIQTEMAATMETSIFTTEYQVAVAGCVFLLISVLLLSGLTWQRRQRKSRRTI
T2 sequence (looked up) 2: T1 sequence (looked up) 1
T2 sequence (looked up) 3: T1 sequence (looked up) 2
Description: as §1

[3] = target: T1, Human IL-2Rβ/γ (intermediate affinity …); experiment: cell-based or functional assay
[4] = target: T2, Human IL-2Rα/β/γ complex (high affinity …); experiment: cell-based or functional assay
[5] = target: T1, Human IL-2Rβ/γ (intermediate affinity …); experiment: FACS, HH cells; EC50 fold vs T2U0.E44-1
Description: as §1

[6] = target: T2, Human IL-2Rα/β/γ complex (high affinity …); experiment: FACS, NK92 cells; EC50 fold vs T2U0.E44-1
Description: as §1

[7] = target: T2, Human IL-2Rα/β/γ complex (high affinity …); experiment: FACS on NK92 cells (IL-2Rα/β/γ), 30 min at 4 °C, PE anti-human Fc, MFI
Description: as §1

EC50 [1]: 188 nM
EC50 [2]: 6.69 nM
Potency in human CD8+ T EC50 [3]: 38.1 nM
Potency reduction (CD8+ T) [3]: 4 fold
Potency in human Treg EC50 [4]: 0.34 nM
Potency reduction (Treg) [4]: 13.2 fold
Affinity reduction [5]: 6.05 fold
Affinity reduction [6]: 1.22 fold
B3: W3XX115-T2U0.E44-3.uIgG4V1 (Fc fusion)
chain: [no letters for about 150 residues]SKYGPPCPPCPAPEFLGGPSVFLFPPKPKDTLMISRTPEVTCVVVDVSQEDPEVQFNWYVDGVEVHNAKTKPREEQFNSTYRVVSVLTVLHQDWLNGKEYKCKVSNKGLPSSIEKTISKAKGQPREPQVYTLPPCQEEMTKNQVSLWCLVKGFYPSDIAVEWESNGQPENNYKTTPPVLDSDGSFFLYSRLTVDKSRWQEGNVFSCSVMHEALHNHYTQKSLSLSLG
heavy: EIQLQQSGPELVKPGASVKVSCKASGYSFTDYNMYWVKQSHGESLEWIGYIDPYNGGTRYNQKFKGKATLTVDKSSSTAFMHLNSLTSEDSAVYYCARNGHWDGAWFAYWGQGTLVTVSAASTKGPSVFPLAPCSRSTSESTAALGCLVKDYFPEPVTVSWNSGALTSGVHTFPAVLQSSGLYSLSSVVTVPSSSLGTKTYTCNVDHKPSNTKVDKRVESKYGPPCPPCPAPEFLGGPSVFLFPPKPKDTLMISRTPEVTCVVVDVSQEDPEVQFNWYVDGVEVHNAKTKPREEQFNSTYRVVSVLTVLHQDWLNGKEYKCKVSNKGLPSSIEKTISKAKGQPREPQVCTLPPSQEEMTKNQVSLSCAVKGFYPSDIAVEWESNGQPENNYKTTPPVLDSDGSFFLVSRLTVDKSRWQEGNVFSCSVMHEALHNHYTQKSLSLSLG
light: DIQMNQSPSSLSASLGDTITITCHASQNINVWLSWYQQKPGNIPKLLIYKASNLHTGVPSRFSGSRSGTGFTLTISSLQPEDIATYYCHQGQSYPFTFGSGTKLEIKRTVAAPSVFIFPPSDEQLKSGTASVVCLLNNFYPREAKVQWKVDNALQSGNSQESVTEQDSKDSTYSLSSTLTLSKADYEKHKVYACEVTHQGLSSPVTKSFNRGEC
notes: IL-2 with C-terminal 1 aa (T) deleted; E44 format, IgG4

EC50 [1]: 33 nM
EC50 [2]: 4.1 nM
B4: W3XX115-T2U0.E44-2.uIgG1V320 (Fc fusion)
chain: [no letters for about 150 residues]GGGGSGGGGSGGGGS[no letters for human IgG1 Fc with changes]
heavy: EIQLQQSGPELVKPGASVKVSCKASGYSFTDYNMYWVKQSHGESLEWIGYIDPYNGGTRYNQKFKGKATLTVDKSSSTAFMHLNSLTSEDSAVYYCARNGHWDGAWFAYWGQGTLVTVSAASTKGPSVFPLAPSSKSTSGGTAALGCLVKDYFPEPVTVSWNSGALTSGVHTFPAVLQSSGLYSLSSVVTVPSSSLGTQTYICNVNHKPSNTKVDKRVEPKSCDKTHTCPPCPAPEAAGGPSVFLFPPKPKDTLMISRTPEVTCVVVDVSHEDPEVKFNWYVDGVEVHNAKTKPREEQYNSTYRVVSVLTVLHQDWLNGKEYKCKVSNKALPAPIEKTISKAKGQPREPQVCTLPPSREEMTKNQVSLSCAVKGFYPSDIAVEWESNGQPENNYKTTPPVLDSDGSFFLVSKLTVDKSRWQQGNVFSCSVMHEALHNHYTQKSLSLSPG
light: B3 light
notes: WT IL-2 N-terminal of Fc with (G4S)3 linker; IgG1 Fc with LALA; one Fab arm (E44 format)

Further lines, the binder ahead of its results:

B1: W3XX115-T2U0.E44-4.uIgG4V1 (Fc fusion)
chain: [no letters for about 150 residues]KYGPPCPPCPAPEFLGGPSVFLFPPKPKDTLMISRTPEVTCVVVDVSQEDPEVQFNWYVDGVEVHNAKTKPREEQFNSTYRVVSVLTVLHQDWLNGKEYKCKVSNKGLPSSIEKTISKAKGQPREPQVYTLPPCQEEMTKNQVSLWCLVKGFYPSDIAVEWESNGQPENNYKTTPPVLDSDGSFFLYSRLTVDKSRWQEGNVFSCSVMHEALHNHYTQKSLSLSLG
heavy: B3 heavy
light: B3 light
notes: IL-2 with C-terminal 2 aa (LT) deleted; E44 format, IgG4
EC50 [1]: 55.2 nM
EC50 [2]: 7.56 nM
Potency in human CD8+ T EC50 [3]: 18.4 nM
Potency reduction (CD8+ T) [3]: 1.93 fold
Potency in human Treg EC50 [4]: 0.77 nM
Potency reduction (Treg) [4]: 29.8 fold
Affinity reduction [5]: 1.78 fold
Affinity reduction [6]: 1.37 fold

B2: W3XX115-U0T2.F114-1.uIgG1V320 (Fc fusion)
heavy 1: EIQLQQSGPELVKPGASVKVSCKASGYSFTDYNMYWVKQSHGESLEWIGYIDPYNGGTRYNQKFKGKATLTVDKSSSTAFMHLNSLTSEDSAVYYCARNGHWDGAWFAYWGQGTLVTVSAASTKGPSVFPLAPSSKSTSGGTAALGCLVKDYFPEPVTVSWNSGALTSGVHTFPAVLQSSGLYSLSSVVTVPSSSLGTQTYICNVNHKPSNTKVDKRV[no letters for human IgG1 Fc with changes]GGGGSGGGGSGGGGS[no letters for about 150 residues]
heavy 2: B4 heavy
light: B3 light
notes: WT IL-2 on the C-terminus of one heavy chain via (G4S)3 linker; IgG1 Fc with LALA; two Fab arms; also called C-terminal fusion protein (F114)
EC50 [1]: 48 nM
binding result [7]: binds

B5: W3XX115-T2U0.E44-1.uIgG1V320 (Fc fusion)
chain: [no letters for about 350 residues with a human IgG1 Fc]
heavy: B4 heavy
light: B3 light
EC50 [1]: 43 nM
EC50 [2]: 4.9 nM
